Molecules are shown by their SMILES. Out of some 310,000 compounds screened, about 14,000 (4.5%) showed an effect of 50% or more. Effects have a minus sign here. This is one part of the list.
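Also: peak tail current of the secondary pulse compared with the same well before compound.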

The assay deals with human ether-à-go-go-related gene (hERG) potassium channel (human, UniProt Q12809). Briefly: primary screen, population patch clamp on CHO cells stably expressing hERG.
human ether-à-go-go-related gene (hERG) potassium channel, sequence (Q12809 whole entry, looked up): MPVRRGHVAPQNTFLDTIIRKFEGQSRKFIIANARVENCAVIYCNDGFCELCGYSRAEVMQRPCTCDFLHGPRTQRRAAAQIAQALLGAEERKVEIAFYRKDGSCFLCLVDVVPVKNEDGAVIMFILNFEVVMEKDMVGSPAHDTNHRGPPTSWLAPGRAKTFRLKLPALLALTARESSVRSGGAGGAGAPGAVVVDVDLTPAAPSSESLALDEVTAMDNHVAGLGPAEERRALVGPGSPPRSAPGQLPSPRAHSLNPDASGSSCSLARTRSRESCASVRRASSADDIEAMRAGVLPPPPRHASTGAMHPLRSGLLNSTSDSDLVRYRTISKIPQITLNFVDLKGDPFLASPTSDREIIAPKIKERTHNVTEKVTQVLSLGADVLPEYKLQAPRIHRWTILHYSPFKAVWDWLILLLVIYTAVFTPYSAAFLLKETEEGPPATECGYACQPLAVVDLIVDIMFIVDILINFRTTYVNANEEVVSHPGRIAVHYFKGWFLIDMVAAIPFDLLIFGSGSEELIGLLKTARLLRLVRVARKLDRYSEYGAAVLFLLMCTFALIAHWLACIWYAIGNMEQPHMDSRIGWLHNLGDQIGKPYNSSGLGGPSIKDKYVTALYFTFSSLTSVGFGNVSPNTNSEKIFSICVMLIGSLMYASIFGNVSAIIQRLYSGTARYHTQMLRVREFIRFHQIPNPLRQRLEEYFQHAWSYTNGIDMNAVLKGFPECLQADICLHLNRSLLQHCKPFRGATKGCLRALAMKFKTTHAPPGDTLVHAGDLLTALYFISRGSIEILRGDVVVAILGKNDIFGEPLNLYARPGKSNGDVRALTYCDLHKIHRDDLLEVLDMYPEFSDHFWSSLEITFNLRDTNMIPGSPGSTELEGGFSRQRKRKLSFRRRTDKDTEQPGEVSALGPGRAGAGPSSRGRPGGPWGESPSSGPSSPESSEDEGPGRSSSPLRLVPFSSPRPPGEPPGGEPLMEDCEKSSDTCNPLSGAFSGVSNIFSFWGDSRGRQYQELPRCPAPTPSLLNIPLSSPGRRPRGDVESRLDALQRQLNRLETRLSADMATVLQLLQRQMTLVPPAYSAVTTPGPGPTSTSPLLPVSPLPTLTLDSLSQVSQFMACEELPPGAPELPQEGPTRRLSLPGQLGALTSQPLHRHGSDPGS
As for `CSCc1cc(N(C)c2ccccc2)nc(-c2ccccc2)n1`, the “hERG current change (%, negative = inhibition) at 10uM” value was found to be 22.4%.
The result for `O=C(c1ccccc1)c1cc2ccc(O)cc2oc1=O` reads 8.61%.
Then `O=C(COC(=O)CCc1c[nH]c(=O)[nH]1)Nc1ccccc1`, with 12.4%.
Then `COc1ccc(CCN2CC(C(=O)O)CC2=O)cc1OC` (stereo not shown), with 0.984%; and `CCOC(=O)C1=C(c2ccccc2)N=c2s/c(=C\c3cccc(O)c3)c(=O)n2C1c1cccs1` (stereo not shown), with 12.2%; and `COC(=O)c1c(C(=O)OC)c(-c2ccc(Cl)cc2)n2c1CS(=O)(=O)C2`, with -18.9%.
For `Cc1ccc(NC(=O)CSc2nc3ccccc3c(=O)n2CCCC(=O)NCCCN2CCOCC2)cc1`, the “hERG current change (%, negative = inhibition) at 10uM” value is -52.6%.
For `COc1ccccc1N1CCN(/N=C/C=C\c2ccccc2[N+](=O)[O-])CC1`, the “hERG current change (%, negative = inhibition) at 10uM” value was determined as 26.9%.
For the molecule `CCOc1ccc(CCNC(=O)Cn2nc(C)c3c(C)n(-c4ccccc4)nc3c2=O)cc1`, the “hERG current change (%, negative = inhibition) at 10uM” value amounted to 14.4%.
The result for `CCOc1ccc(OCC)c(NC(=O)CSCC(=O)O)c1` reads 2.04%; that for `CCOc1ccccc1N/C=C(\C#N)c1nc2ccccc2n1C`, -1.21%; that for `CCCCn1c(SCc2ncc(-c3ccccc3)o2)nc2cc(S(N)(=O)=O)ccc21`, -50.5%.
Then `O=C(Nc1sc2c(c1CN1CCOCC1)CCC2)c1ccc(F)cc1`, with -3.33%.
The result for `CC(C)CCNC(=O)NC(=O)COc1ccccc1C#N` reads -4.64%; that for `O=C(N/N=C/c1ccc([N+](=O)[O-])cc1)c1cnccn1`, -6.52%.
As for `CCc1cccc(NC(=O)NC(=O)Cn2nnc(C(=O)OC)c2C(=O)OC)c1`, the “hERG current change (%, negative = inhibition) at 10uM” value is given as 10.4%.
As to `CC(C)n1c(SCC(=O)Nc2ccccc2)nc2c1c(=O)[nH]c(=O)n2C`, the “hERG current change (%, negative = inhibition) at 10uM” value is given as -14.4%.
On to `N#CC(Cc1ccc(OC(F)F)cc1)c1nc2ccccc2[nH]1` (stereo not shown), for which the “hERG current change (%, negative = inhibition) at 10uM” value is reported as -70.1%.
As for `Cc1ccc(S(=O)(=O)N/N=C\c2ccc3c(c2)OCO3)c(C)c1`, the “hERG current change (%, negative = inhibition) at 10uM” value turned out to be 5.18%.
`Cc1nnc(NC(=O)CSc2nccn2Cc2ccccc2)s1`: the “hERG current change (%, negative = inhibition) at 10uM” value is listed as -14.1%.
As to `CCn1c(SCC(=O)Nc2ccc3c(c2)OCO3)nc2c(c1=O)SC(C)C2` (stereo not shown), the “hERG current change (%, negative = inhibition) at 10uM” value is recorded as -7.63%.
Take `CC(NC(=O)C1CCCC1)C1CC2CCC1C2` (stereo not shown): the “hERG current change (%, negative = inhibition) at 10uM” value worked out at 11.1%.
Turning to `COc1ccc(-n2c(=S)[nH]c3cc(C(=O)NCc4ccccc4OC)ccc3c2=O)c(OC)c1`, the “hERG current change (%, negative = inhibition) at 10uM” value is listed as 16%.
In the case of `Cc1cnc(C(=O)Nc2cccc(S(=O)(=O)N(C)C)c2)cn1`, the “hERG current change (%, negative = inhibition) at 10uM” value came to 7.84%.
The result for `CC(=O)Nc1ccc(NC(=O)[C@@H]2CCCN2S(=O)(=O)c2ccc3c(c2)OCCO3)cc1` reads 12.2%.
For the molecule `Cc1c(C(=O)NC(=S)Nc2ccccc2N2CCCC2)cccc1[N+](=O)[O-]`, the “hERG current change (%, negative = inhibition) at 10uM” value turned out to be 3.52%.
The result for `O=C1CC(c2ccccc2)CC(O)=C1C=NCc1ccccc1` (stereo not shown) reads 1.16%; that for `C=CCOCC(O)Cn1c(N2CCCC2)nc2c1c(=O)[nH]c(=O)n2C` (stereo not shown), 12.7%.
As for `Cc1cc(C)n2cc(CSc3ncn[nH]3)nc2n1`, the “hERG current change (%, negative = inhibition) at 10uM” value was 0.809%.
Regarding `COc1ccc(Cl)cc1N(CC(=O)N1CCC(C)CC1)S(C)(=O)=O`, the “hERG current change (%, negative = inhibition) at 10uM” value is listed as -6.39%.
With `Cc1ccnc(NS(=O)(=O)c2ccc(N3C(=O)Nc4ccccc4N3O)cc2)c1`, the “hERG current change (%, negative = inhibition) at 10uM” value is given as 17.9%.
For `O=C(Oc1ccc(C(=S)N2CCCCC2)cc1)c1ccccc1`, the “hERG current change (%, negative = inhibition) at 10uM” value is listed as -6.33%.
`Cn1c(CNC(=O)CNC(=O)c2ccccc2F)cc(=O)n(C)c1=O`: the “hERG current change (%, negative = inhibition) at 10uM” value came to 30.6%.
`CCn1c(SCC(=O)N/N=C/c2ccccc2OCC(=O)O)nnc1-c1ccccc1`: the “hERG current change (%, negative = inhibition) at 10uM” value is on record as 5.58%.
Take `Cc1ccccc1NC(=S)N(CCN1CCOCC1)Cc1ccccc1F`: the “hERG current change (%, negative = inhibition) at 10uM” value came to 30.1%.
As for `CCc1nc(SCc2ccc(OC)cc2)n[nH]1`, the “hERG current change (%, negative = inhibition) at 10uM” value amounted to 24.7%.
The result for `Cn1c(=O)oc2ccc(C(=O)CSc3nnnn3-c3ccccc3)cc21` reads 4.09%; that for `Cc1cc(Nc2ccccc2)cc(=O)n1C`, 18.6%; that for `COc1ccccc1NC(=O)N1CCN(c2ccccn2)CC1`, 7.9%.
For the molecule `CCOC(=O)c1cccc(NC(=O)c2cccs2)c1`, the “hERG current change (%, negative = inhibition) at 10uM” value is recorded as -13.1%.
Take `Cc1ccc(OCCC(=O)OCC(=O)N2c3ccccc3CC2C)cc1` (stereo not shown): the “hERG current change (%, negative = inhibition) at 10uM” value was 17.9%.
With `CCN(CC(=O)Nc1ccc(OC)cc1)C(=O)CSCc1ccc(C)cc1`, the “hERG current change (%, negative = inhibition) at 10uM” value is given as -22.2%.
Consider `COc1cc(NC(=S)NCc2ccc(S(N)(=O)=O)cc2)cc(OC)c1`, for which the “hERG current change (%, negative = inhibition) at 10uM” value came to 10.4%.
In the case of `Cc1ccccc1C(=O)NNC1CC(=O)N(c2ccc3c(c2)OCCO3)C1=O` (stereo not shown), the “hERG current change (%, negative = inhibition) at 10uM” value is -4.37%.
In the case of `O=C(CCC1CCCCC1)NNC(=O)NC12CC3CC(CC(C3)C1)C2`, the “hERG current change (%, negative = inhibition) at 10uM” value is listed as 13.2%.
Turning to `CC(C)NC(=O)C(c1ccc(F)cc1)N(C(=O)CCC(=O)Nc1ccccn1)c1ccccc1F` (stereo not shown), the “hERG current change (%, negative = inhibition) at 10uM” value was found to be 13.8%.

The values are drawn from paper PMC4336329 (PLoS ONE, 2015).
